Reference: PubChem BioAssay AID485313 (National Center for Advancing Translational Sciences (NCATS), 2010)
About 7,600 (2.4%) of roughly 320,000 compounds were called active. Inconclusive results, whose numbers are uncertain, are shown with a selection of clear calls. The call rests on the fitted dose curve; in most records, active means well fitted activation curve with a large enough effect; inconclusive means small, poorly fitted or top-dose-only effect; inactive means no such curve, though single readings can be large or run the other way. A potency beside an inconclusive call is a rough fit, not a confirmed value.

assay: qHTS Assay for NPC1 Promoter Activators; settings: Huh7 NPC1 promoter luciferase reporter, 24 h; series mostly up to 9.22 µM; activation: at the top concentration; further: nearly all actives have a fitted effect of over 60% in size; on activation: % of control where 0% means no effect
Outline: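 Luciferase expression driven by the NPC1 promoter was measured in stably transfected Huh7 cells after a 24 h compound incubation, using a luciferase reagent and a luminescence read.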
Potency means the concentration at half of the fitted maximal effect; tags describe the fitted curve by direction and shape.

activation, inactive:
COC(=O)c1cc2c(N)c(C(=O)c3ccccc3)sc2nc1C(OC)OC -1.16%, Cc1nc(C)c(-c2nnc(-c3ccccc3Cl)o2)cc1C(=O)NN -2.53%, O=C(COc1ccc(CO)cc1)Nc1ccc(F)cc1 11.8%, Cc1c(O)ccc2c(CC(=O)N[C@@H](Cc3ccccc3)C(=O)O)cc(=O)oc12 -3.48%, COc1ccc([N+](=O)[O-])cc1NC(=O)C1C2C=CC(C2)C1C(=O)O (stereo not given) 5.71%, Cc1cc(NC(=O)CCC(=O)N(Cc2ccccc2)C2(C(=O)NC3CCCCC3)CCCC2)no1 2.87%, CCN(CC)CCN(Cc1cc2ccc(C)cc2[nH]c1=O)C(=S)Nc1ccccc1C(=O)OC -1.07%, CCCCn1c(N)c(N(CCC(C)C)C(=O)C2=NN(c3ccccc3)C(=O)CC2)c(=O)[nH]c1=O 0.783%, COc1ccc(OC)c(/C=C/C(=O)N2CCN(S(=O)(=O)c3ccc(C)cc3C)CC2)c1 3.07%, CCOc1ncccc1C(=O)Nc1ccc(S(=O)(=O)Nc2nc(C)cc(C)n2)cc1 -0.0876%, CC(C)C(C(=O)Nc1nccs1)N1C(=O)c2ccccc2C1=O (stereo not given) -0.279%, C/C=C(/C)C(=O)Nc1cccc(C2=NOC3(C2)C[C@@H](C(N)=O)N(C(=O)c2ccc(OC)cc2)C3)c1 (stereo not given in full) -6.83%, O=C(Nc1nccs1)c1cc(N2CCOCC2)nc2ccccc12 -3.12%, Cc1ccc(NC(=O)N(Cc2ccc3c(c2)OCO3)Cc2cc3cc4c(cc3[nH]c2=O)OCCO4)cc1 1.2%, Cn1ccnc1SCC(=O)c1ccc(O)cc1 24.1%, Cc1ccc(/C=C2/C(=O)c3ccc(C(=O)O)cc3C2=O)o1 1.68%, CCc1ccccc1N1CSC2=C(C#N)C(c3ccccc3F)CC(=O)N2C1 (stereo not given) -1.51%, CCC1CCCCN1C(=S)NC1CCCCC1 (stereo not given) -0.387%, O=C1NC(=S)N/C1=C/c1cccnc1 11.5%, CCCC1(C(=O)OCC)NC(c2ccc(OC)cc2OC)C2C(=O)N(c3ccccc3)C(=O)C21 (stereo not given) -2.88%, CC(C)C(NS(=O)(=O)c1ccc2c(c1)C(C)(C)C(=O)N2C)C(=O)NCc1ccccc1Cl (stereo not given) -0.894%, Cc1ccc(Nc2nc(NCCO)c3ccccc3n2)cc1C 1.98%, CC(C)(C)c1cc(C(F)(F)F)n2ncc(-c3ccccc3)c2n1 -3.12%

Potency, inconclusive:
O=C(c1ccc(Cl)s1)N1CCc2ccccc21 2.51 µM [activator, partial curve], CC(C)Nc1cc(C(C)(C)C)nc2c(-c3ccccc3)cnn12 5.62 µM [activator, single point], O=C(c1cc(-c2ccccc2O)on1)N1CCCCCC1 2.24 µM [activator, partial curve], N/C(=N\OC(=O)c1ccc(Cl)cc1)c1ccc(Cl)cc1 1.41 µM [activator, partial curve], Cc1ccsc1/C=C(\CC(=O)O)c1nc2ccccc2o1 3.16 µM [activator, single point], CCc1ncc(/C=C2\C(=O)Nc3ccccc32)[nH]1 3.16 µM [activator, single point], O=C(CNC(=O)c1ccccc1F)N/N=C/c1ccc2c(c1)OCO2 3.55 µM [activator, single point], COc1cccc(NC(=O)c2cnn(-c3ccccc3)c2C)c1 7.08 µM [activator, partial curve, poor fit], O=C(CSc1nc2ccccc2[nH]1)c1ccc2c(c1)OCO2 3.55 µM [activator, partial curve], Cc1cc(NC(=O)c2cnn3cccnc23)no1 2.51 µM [activator, partial curve], CN1C(=O)CSc2ccc(NC(=O)Nc3ccccn3)cc21 4.47 µM [activator, partial curve], Cc1ccccc1C(=O)Nc1nnc(-c2ccco2)o1 3.55 µM [activator, single point], O=C(/C=C/c1ccc2ccccc2c1)c1ccoc1 3.16 µM [activator, single point], Nc1ccc(C(=O)N/N=C/c2ccccc2)cc1 3.16 µM [activator, single point], COc1cccc(N2CCN(c3ncccn3)CC2)c1 5.62 µM [activator, single point], CC(=O)Nc1c(O)nc(SCC(=O)Nc2ccc(C(C)=O)cc2)[nH]c1=O 3.98 µM [activator, partial curve], CC(C)CCn1cnc2c(cnn2-c2ccc(F)cc2)c1=O 3.98 µM [activator, single point], NC(=O)c1oc2ccccc2c1NC(=O)c1nc2ccccc2s1 3.55 µM [activator, single point], CC1CCc2c(C(=O)Nc3nccs3)csc2C1 (stereo not given) 3.55 µM [activator, single point], CCCCN(C)C(=O)CCCc1c[nH]c2ccccc12 5.01 µM [activator, single point], CCCCN(C)C(=O)c1cc2cc3cc(OC)ccc3nc2o1 3.16 µM [activator, partial curve], Cc1ccc(C(=O)Nc2ccc3c(c2)CCC3)cc1S(=O)(=O)N1CCOCC1 2.82 µM [activator, partial curve], CCOCC(=O)Nc1nnc(C2CCCCC2)s1 3.55 µM [activator, partial curve], CC(=O)Nc1ccc(NC(=O)c2ccccc2-n2cnnn2)cc1 1.26 µM [activator, single point], N/C(=N\OC(=O)/C=C/c1ccccc1Cl)c1cccnc1 5.62 µM [activator, single point], O=C(O)c1cccc(N/N=C/c2cc(Br)cc(Br)c2O)c1 5.62 µM [activator, single point], Nc1nc2ccccc2n1/N=C/c1ccc(-c2ccccc2)o1 3.98 µM [activator, single point], COc1ccc(CNC(=S)N/N=C(/C)c2ccccc2)cc1 3.16 µM [activator, single point], CCN(CC)C(=O)/C=C/c1ccccc1 3.16 µM [activator, single point], Cc1cccc(NC(=O)Nc2ccc([N+](=O)[O-])cc2)n1 3.55 µM [activator, single point], FC(F)(F)c1ccc(-c2nnc(-c3cccnc3)o2)cc1 3.55 µM [activator, partial curve, poor fit], O=C1CCn2nc(-c3ccc(Cl)cc3)cc2N1 2.82 µM [activator, partial curve], CC1CCCC(C)N1C(=O)c1cc(-c2ccc(Cl)c(Cl)c2)on1 (stereo not given) 5.62 µM [activator, single point], CC(=O)Oc1ccc2occ(C(=O)c3cccs3)c2c1 5.62 µM [activator, single point], CCn1c(C)cc(/C=C2/SC(=S)NC2=O)c1C 2.51 µM [activator, partial curve], CCn1c(C)nc2cc(C(=O)NNC(=S)Nc3ccccc3Cl)ccc21 3.16 µM [activator, single point], Clc1ccc(-c2csc(Nc3ccccc3)[n+]2Cc2ccco2)c(Cl)c1 2.82 µM [activator, partial curve], O=C(c1ccc(OCCCc2cnc[nH]2)cc1)C1CC1 2.31 µM [activator, full curve], O=C(Nc1ccncc1)c1cc2ccccc2o1 3.55 µM [activator, partial curve]

Potency, active:
Clc1ccccc1-c1nnc(-c2ccccc2Cl)o1 3.98 µM, C/C(=N/NC(=O)c1cccs1)c1c(C)[nH]n(-c2nc3ccccc3s2)c1=O 2 µM, CCOc1ccc(N/C(C)=C\C(=O)c2ccc3c(c2)OCCO3)cc1 2.51 µM, Cc1cc(=O)oc2cc(NC(=O)c3ccccc3Cl)ccc12 3.16 µM, Cc1cc(C(=O)CSc2nnnn2-c2ccccc2)c(C)n1CC1CCCO1 (stereo not given) 2.51 µM, CCCc1ccc(OCc2ccc(C(=O)N/N=C/c3cccnc3)o2)cc1 0.398 µM, Cc1nn(Cc2ccccc2Cl)c(Cl)c1C(=O)NCCc1ccccc1 3.98 µM, O=C(COc1ccc2ccccc2c1)NC1=NCCS1 4.47 µM, CC(=NC1CCCCC1)C1=C(O)c2ccccc2C1=O 2.82 µM, O=C(N/N=C/c1cccc(F)c1)c1csc2c1CCCC2 1 µM, COc1ccc(-c2cc(-c3ccc(OC)cc3)[nH]n2)cc1 2.82 µM, O=C(COC(=O)c1ccccc1[N+](=O)[O-])c1ccc2c(c1)OCO2 0.316 µM, Nc1nc(Nc2ccccc2)nc2ccccc12 0.562 µM, CCOC(=O)C1CCN(C(=O)c2cc(COc3ccc(F)cc3F)on2)CC1 2.82 µM, Cc1ccccc1-c1nnc(SCc2ccccc2F)o1 3.16 µM, COc1cc(NC(=O)C(C)C)ccc1NC(=O)c1cc2ccccc2o1 2.24 µM, CC(=O)Nc1ccc(-c2csc(-c3cccnc3)n2)cc1 2.82 µM, Cn1cnc2c(N/N=C/c3cccs3)ncnc21 3.55 µM
